According to publication PMC4336329 (PLoS ONE, 2015):
Screen size: about 310,000 compounds; about 14,000 (4.5%) showed an effect of 50% or more. Effects have a minus sign here. The list shows a part of the results.

The compounds below were run against human ether-à-go-go-related gene (hERG) potassium channel (human, UniProt Q12809) (assay: primary screen, population patch clamp on CHO cells stably expressing hERG).
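Also: peak tail current of the secondary pulse compared with the same well before compound.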

Sequence of human ether-à-go-go-related gene (hERG) potassium channel (Q12809 whole entry, looked up): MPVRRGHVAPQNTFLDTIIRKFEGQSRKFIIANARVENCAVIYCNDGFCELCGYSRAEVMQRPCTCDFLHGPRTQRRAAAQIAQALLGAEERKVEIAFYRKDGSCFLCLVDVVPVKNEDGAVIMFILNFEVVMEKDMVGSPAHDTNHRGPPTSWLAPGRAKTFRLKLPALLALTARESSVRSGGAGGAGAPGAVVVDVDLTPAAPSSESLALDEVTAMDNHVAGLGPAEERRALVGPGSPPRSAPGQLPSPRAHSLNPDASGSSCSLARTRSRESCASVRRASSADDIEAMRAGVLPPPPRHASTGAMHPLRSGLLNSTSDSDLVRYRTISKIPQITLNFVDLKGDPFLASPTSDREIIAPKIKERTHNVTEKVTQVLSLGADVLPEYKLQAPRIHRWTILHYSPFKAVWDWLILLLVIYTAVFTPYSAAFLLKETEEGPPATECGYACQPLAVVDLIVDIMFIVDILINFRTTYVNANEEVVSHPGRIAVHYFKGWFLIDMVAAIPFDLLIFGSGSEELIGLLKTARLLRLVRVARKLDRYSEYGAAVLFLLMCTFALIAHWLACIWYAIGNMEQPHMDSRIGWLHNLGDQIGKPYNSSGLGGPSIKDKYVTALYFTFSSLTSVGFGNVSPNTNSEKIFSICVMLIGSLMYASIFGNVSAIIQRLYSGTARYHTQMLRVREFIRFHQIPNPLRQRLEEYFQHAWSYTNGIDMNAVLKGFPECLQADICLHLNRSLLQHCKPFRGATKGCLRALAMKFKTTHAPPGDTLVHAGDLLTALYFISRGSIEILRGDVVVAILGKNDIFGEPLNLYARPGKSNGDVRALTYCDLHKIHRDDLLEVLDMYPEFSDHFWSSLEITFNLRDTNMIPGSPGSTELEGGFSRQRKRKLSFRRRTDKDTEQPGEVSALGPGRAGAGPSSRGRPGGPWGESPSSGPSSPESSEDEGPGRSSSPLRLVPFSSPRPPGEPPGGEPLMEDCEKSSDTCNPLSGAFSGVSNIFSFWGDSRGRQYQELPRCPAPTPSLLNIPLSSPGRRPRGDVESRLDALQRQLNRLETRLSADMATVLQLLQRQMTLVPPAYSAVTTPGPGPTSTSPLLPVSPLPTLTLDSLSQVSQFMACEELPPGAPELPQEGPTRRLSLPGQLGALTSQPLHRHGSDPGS

Structure (SMILES) | hERG current change (%, negative = inhibition) at 10uM [%]
CC1=NN(c2ccc(C(=O)O)cc2)C(=O)/C1=C/c1ccc(-c2ccccc2F)o1 | 19.3
CC(=O)Nc1ccc(NS(=O)(=O)Cc2ccccc2)cc1 | 13.3
Cc1ccc(SCc2nnc(NC(=O)c3ccccc3)s2)cc1 | -6.11
O=C(Nc1cc([N+](=O)[O-])ccc1O)c1cccc(C(=O)Nc2cc([N+](=O)[O-])ccc2O)c1 | 19.1
O=C(NCc1cccs1)C(=O)NCC(c1ccco1)N1CCN(c2ccccc2)CC1 (stereo not shown) | -1.97
COc1ccc(OC)c(N(/C(N)=N/c2nc(C)cc(C)n2)S(=O)(=O)c2ccc(NC(C)=O)cc2)c1 | 7.96
COc1ccc(NC(=O)CNC(=O)C23CC4CC(CC(C4)C2)C3)c(OC)c1 | -13.5
Cc1ccc(C2=NCCn3c2c2ccc([N+](=O)[O-])cc2[n+]3[O-])cc1 | -7.51
CC(O)[C@H]1CNC(=O)C(=O)N1CCC12CC3CC(CC(C3)C1)C2 (stereo partly shown) | 7.45
CC1(C)OC(=CC=Nc2ccc(Cl)cc2)OC1(C)C | 2.47
CC(=O)NC1=NN(c2ccccc2)C(=O)C1 | 17.3
Cc1ccc(CN(C)C(=O)C2CCC(=O)N(CC3CCCCC3)C2)o1 (stereo not shown) | 10.3
Cc1cc(NC(=O)COc2ccc(Cl)cc2Cl)n(CCC#N)n1 | -19
CC(NC(=O)c1cc(-c2ccccn2)nc2ccc(Cl)cc12)C1CCCO1 (stereo not shown) | 3.95
Nc1ccccc1C#CC(=O)c1ccccc1 | 17.4
CCOCCOC(=O)C(C)Oc1ccc(Oc2ncc(Cl)cc2Cl)cc1 (stereo not shown) | 5.99
O=C(c1cc([N+](=O)[O-])ccc1N1CCCC1)N1CCCCC1 | 9.96
O=C(/C=C/c1cccs1)NCc1ccccc1 | -2.08
CCCCC1C(C#N)=C(C)NC2=C1C(=O)CC(C)(C)C2 (stereo not shown) | -9.68
Cc1ccc(NC(=S)NNS(=O)(=O)c2ccc3ccccc3c2)cc1Cl | 5.28
COc1ccc(-c2nc(-c3ccccc3)c(-c3cccs3)[nH]2)cc1OC | 8.81
CCC(C)n1c(SCC(=O)NC2CCS(=O)(=O)C2)nc2ccccc2c1=O (stereo not shown) | -13.8

Structure (SMILES) | hERG current change (%, negative = inhibition) at 10uM [%]
C=CCSc1nncn1/N=C/c1ccc(OC)cc1 | -32.1
CC(=O)Nc1ccc(N/C(N)=N/c2nc(C)cc(C)n2)cc1 | 14
COc1ccc(Nc2nc(N)c(C(=O)c3ccc(F)cc3)s2)cc1 | 25.9
c1ccc(C2CCC(N3CCN(c4ccccc4)CC3)CC2)cc1 (stereo not shown) | -25.6
COc1ccc(NC(=O)c2noc3c2CCCCC3)cc1 | -0.673
CC(=O)c1cccc(NC(=O)CSc2nc(C3CC3)nc3ccccc23)c1 | -10
CNC(=O)c1ccccc1S(=O)c1ccccc1COC(C)=O (stereo not shown) | 3.15
Cc1ccc2nc(NC(=O)c3ccc(OCC4CCCO4)cc3)sc2c1 (stereo not shown) | -3.89
COc1ccc(OC(=O)N2CCOCC2)cc1 | 0.314
Cc1c(CC(=O)N2C[C@H]3C[C@@H](C2)c2cccc(=O)n2C3)c(=O)oc2c(C)c(O)ccc12 | 4.94
CCN(CC)CCNc1ccc(Cl)cc1[N+](=O)[O-].Cl | -61.6
O=C(NC1CCOCC1)C1CCC(=O)N(Cc2ccc(Cl)cc2)C1 (stereo not shown) | 6.46
COc1ccc(-n2nnnc2CNC(=O)C(=O)c2c[nH]c3ccccc23)cc1 | 6.27
Nc1ccc2oc(-c3ccccc3Cl)cc(=O)c2c1O | -9.02
Cc1ccc(S(=O)(=O)NN2C(=O)/C(=C/c3ccccn3)SC2=S)cc1 | -5.43
O=C(Nc1ccccc1F)c1cc(S(=O)(=O)N2CCOCC2)cs1 | 5.76
Cc1ccc(F)cc1CNC(=O)C1CCC(=O)N(CCc2ccccc2)C1 (stereo not shown) | -37.8
CC(=O)Nc1ccc(NC(=O)c2ccc(NS(=O)(=O)c3cccc4cccnc34)cc2)cc1 | 24.4
Cc1nc(-c2ccc(C(=O)Nc3ccc(F)cc3)cc2)cs1 | -3.65
O=C(NCc1cccnc1)C(=O)NCC1OCCN1S(=O)(=O)c1ccc(Cl)cc1 (stereo not shown) | -11.2
C=CCc1cc(C)ccc1OCCn1ccnc1.O=C(O)C(=O)O | 8.08
Cc1cc(NC(=O)C(C)SCC(=O)N(C)CC(=O)Nc2ccc(F)cc2)no1 (stereo not shown) | 7.59

Structure (SMILES) | hERG current change (%, negative = inhibition) at 10uM [%]
COc1ccc(-c2noc(CSc3ccc(C)cc3)n2)cc1 | 4.15
COCc1cc(=O)n2[nH]c(C)nc2n1 | 7.23
COc1ccc(CCC(=O)OCC(=O)Nc2ccccc2OC(F)F)cc1OC | 5.94
O=C(Nc1ccc(OC(F)(F)F)cc1)Oc1ccccc1N1CCOCC1 | 7.23
CC(=O)Nc1ccc(S(=O)(=O)N2CCN(S(=O)(=O)c3ccc(F)c(F)c3F)CC2)cc1 | 11.7
O=C(O)c1cc([N+](=O)[O-])ccc1NCc1ccccc1Cl | 22.8
CC1CN(C2CCN(C(=O)COc3ccc(Cl)cc3)CC2)CC(C)O1.O=C(O)C(=O)O (stereo not shown) | -38
CC(=O)c1cn(CC(=O)Nc2ccc(C)cc2C)c2ccccc12 | 1.76
Cn1c(NCC(O)c2ccccc2)nc2c1c(=O)n(Cc1ccc(Cl)c(Cl)c1)c(=O)n2C (stereo not shown) | -6.39
Cn1c(SCC(=O)NNC(=O)c2ccccc2)nnc1C(F)(F)F | 13.3
O=C(Nc1ccc(F)cc1)C1CCC(N2C(=O)c3ccccc3C2=O)CC1 (stereo not shown) | 9.03
CN(O)C(=O)Nc1ccc([N+](=O)[O-])cc1 | 10.4
C=CCn1c(O)c(/C(C)=N/N2CCCCCC2)c(=O)[nH]c1=O | -3.3
Cc1ccc(C)c(Nc2nc(-c3ccncc3)nc3ccccc23)c1 | 3.25
C1=C(c2c[nH]c3ccccc23)CCNC1 | 7.59
C=CCNc1nc(-c2cccc(OC)c2O)nc2ccccc12 | 14.5
Cc1ccc(C)c(N(C)C(=O)COc2cc(=O)n(C)c3ccccc23)c1 | -15
COc1ccc(C(O)P(=O)(OC(C)C)c2ccc(N(C)C)cc2)c(OC)c1 (stereo not shown) | 8.29
CC(C)Cc1cc(C(=O)O)n[nH]1 | 6.79
COc1cc(C2/C(=C(/O)c3ccccc3)C(=O)C(=O)N2c2ccccn2)ccc1O (stereo not shown) | 25.1
Cc1ccc(/C=N/c2sc3c(c2C#N)CCCCC3)o1 | 5.92
COc1ccccc1NC(=O)N1CCC(c2nc3cc(C)c(C)cc3[nH]2)CC1 | -53.3

Structure (SMILES) | hERG current change (%, negative = inhibition) at 10uM [%]
O=C(OCCC1Oc2cccnc2NC1=O)c1ccc(F)cc1 (stereo not shown) | 12.6
O=C(Cn1nc(C(F)(F)F)c2c1CCC2)NC1CCCCC1 | -3.87
COCCN(C(=O)CSc1nnc(C)n1Cc1ccccc1)c1c(N)n(Cc2ccccc2)c(=O)[nH]c1=O | 28.2
O=C(CSc1nnc(-c2ccc(Br)o2)n1Cc1ccccc1)c1ccccc1F | 3.78
CCOC(=O)c1ccc(NC(=O)CCC(=O)NCc2ccco2)cc1 | 14.2
O=C(COC(=O)c1ccccc1O)NC(=O)c1ccc(OC(F)F)cc1 | 19.3
C#CCn1c(=NC(=O)c2ccc(Cl)s2)sc2cccc(OC)c21 | 19
COc1cc(NC(=O)CCN2C(=O)NC3(CCCC3)C2=O)c(OC)cc1Cl | 5.01
COc1ccc(C(=O)NCc2cc(C)nc3ccccc23)cc1 | -13.6
CN(C)c1ccc(CNc2nc3ccccc3s2)cc1 | 11.2
Cc1cccc2c(N=Nc3ccc(S(=O)(=O)Nc4cccc(Cl)c4)cc3[N+](=O)[O-])c(O)[nH]c12 | 30.1
CC1CC(C)CN(c2cc3c(cc2[N+](=O)[O-])C(=O)N(c2ccccc2)C3=O)C1 (stereo not shown) | -3.4
Cc1ccc(-n2[nH]c(C)c(C=Nc3ccc(S(=O)(=O)Nc4nccs4)cc3)c2=O)cc1 | 2.81
O=C(/C=C/c1cccs1)Nc1nc(-c2ccccc2)cs1 | 6.61
CCOC(=O)c1nnn(CC(=O)N2N=C(c3ccc(Cl)cc3)CC2c2ccccc2)c1C(=O)OCC (stereo not shown) | -28
COc1ccc(C(=O)N/N=C(\C)CC(=O)Nc2ccc(Cl)cn2)cc1 | -42.9
CCN1CCN(c2ccc(S(=O)(=O)N3CCCCC3)cc2NC(=O)c2ccc(C)o2)CC1 | -75.7
COc1cccc(C2CCCCN(C)C2=O)c1 (stereo not shown) | -9.67
O=C(CN(Cc1ccc(F)cc1)C(=O)c1ccco1)NCc1ccc(F)cc1 | -40.9
Cn1c(=O)c2c(ncn2CC(=O)Nc2nc(-c3ccccc3Cl)cs2)n(C)c1=O | -3.18
Cc1ccccc1NC(=O)c1cnn(-c2ccccc2)c1NC(=O)c1ccco1 | 0.329
CCOc1ccccc1NC(=O)c1ccccc1-c1nc(-c2ccccc2)no1 | 4.07
